Results as given in the supplement of paper PMC3334620.
The full ranking holds about 33,000 sequences; the median of “E-score (-0.5 to 0.5)” is about -0.043, and the highest 2% start at about 0.37. Some of the results follow.

Molecular target: T1, Upc2 (UniProt Q12151)
T1 sequence: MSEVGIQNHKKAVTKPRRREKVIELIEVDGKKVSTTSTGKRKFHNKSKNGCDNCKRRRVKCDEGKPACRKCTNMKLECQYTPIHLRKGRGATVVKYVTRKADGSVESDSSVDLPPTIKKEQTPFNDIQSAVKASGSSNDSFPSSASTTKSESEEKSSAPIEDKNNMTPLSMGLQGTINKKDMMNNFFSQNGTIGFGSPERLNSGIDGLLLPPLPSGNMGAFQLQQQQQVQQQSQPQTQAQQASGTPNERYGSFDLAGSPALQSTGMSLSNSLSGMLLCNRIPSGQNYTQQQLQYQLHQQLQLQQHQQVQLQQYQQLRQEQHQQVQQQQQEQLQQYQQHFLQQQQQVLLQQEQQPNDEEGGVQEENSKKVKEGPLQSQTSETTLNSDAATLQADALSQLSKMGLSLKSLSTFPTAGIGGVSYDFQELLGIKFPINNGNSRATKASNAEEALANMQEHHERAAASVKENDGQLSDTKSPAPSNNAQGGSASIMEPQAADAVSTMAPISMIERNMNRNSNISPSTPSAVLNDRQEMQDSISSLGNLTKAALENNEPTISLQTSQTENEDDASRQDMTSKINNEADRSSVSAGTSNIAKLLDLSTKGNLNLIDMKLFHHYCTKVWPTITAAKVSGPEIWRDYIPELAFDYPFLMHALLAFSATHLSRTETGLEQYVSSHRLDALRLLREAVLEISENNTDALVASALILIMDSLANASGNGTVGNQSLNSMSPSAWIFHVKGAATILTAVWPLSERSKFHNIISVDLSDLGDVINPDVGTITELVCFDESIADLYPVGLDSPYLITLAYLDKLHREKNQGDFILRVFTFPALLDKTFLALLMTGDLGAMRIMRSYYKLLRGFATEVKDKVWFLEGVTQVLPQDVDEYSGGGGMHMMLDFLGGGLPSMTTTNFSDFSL
Test: PBM E-score (8-mer binding enrichment) (E-score (-0.5 to 0.5)); higher = stronger / more preferred TF binding; most listed sequences are background and not binding sites
Conditions: protein concentration: 200 nM; construct: GST-full length
Procedure, shortened: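 Detection of bound protein used fluorescent anti-GST, with scans normalised by masliner. The proteins were GST-tagged yeast transcription factors applied at about 100-200 nM to universal all-10-mer Agilent arrays made double-stranded by primer extension. Each ungapped eight-base word, pooled with its reverse complement, was scored with an E-score from the Universal PBM Analysis Suite.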

Sequence	PBM E-score
AACAGCTG	-0.0964
AACTGCAC	-0.0304
GCTGAAGA	-0.15
CTGGATTC	-0.0407
ACTTCCTC	-0.155
CAGCCCTG	-0.241
AAGACAAA	0.0821
CAGCGGAC	-0.0352
TAAAGGTA	0.04
CACTAAAG	-0.0675
CTTTGATC	-0.279
ATACCTCA	-0.196
ATTACAAC	-0.0624
CCCACTTA	-0.0764
CGCAACAG	-0.0833
CCAGATCG	0.0708
ATTTTCAA	0.00587
ACATAGAA	-0.23
AGCTGCCA	-0.188
CAAACTAC	-0.0136
GCTCCCAC	-0.323
CGTTCCGC	0.385

Sequence	PBM E-score
CTAGGAAC	0.0689
CTACAGCC	-0.304
AAAACTGC	0.0016
AACCGTTG	-0.0628
CGTGGACA	-0.078
ACGGTCGA	0.135
CGCATGCG	0.176
ACAGGGCC	-0.027
GCACGGGC	-0.24
ATCTTTTA	0.176
AAAGCCGT	0.0751
CTGAATGA	-0.00417
GCAAGTGC	-0.223
AACCCTAA	-0.138
ATAGAAGG	-0.111
AGCCCCTG	-0.138
AGTGCCCG	-0.0912
CTGCGCTC	-0.153
ACGCGTCT	0.0516
GACGTCAA	0.0563
AGATTTTC	-0.0873
CGTCAGAC	-0.148

Sequence	PBM E-score
AACGGCGC	0.219
GTCTTTTA	0.205
CGTCCGAA	-0.0113
CACGGCAG	-0.00161
AACGTAAA	0.25
ATGATGTG	-0.14
ATAGGTCC	-0.132
GCTTTTAC	0.246
GTGAACGA	0.453
CACGAGAA	0.0693
GCGGTTAA	0.0132
GACCTAGC	-0.115
CTCGTGAA	0.185
CCATCGGA	0.05
ATTGATGC	0.0479
GCATAACA	0.0119
CGATCGAG	0.121
AGAGGCCG	-0.105
ATATAAAA	-0.0137
CCGGCACA	-0.18
ACGGTTTA	0.0939
ACTTATCT	-0.106

Sequence	PBM E-score
CGAGACAC	-0.0291
GTTGTTTA	0.0127
AGGCCAAC	0.0461
CTGAATCA	-0.241
GCATGGAC	-0.202
CAGACCGG	-0.0907
GCGGCCGC	0.0128
ACGAAGTC	0.298
ACACTCAT	-0.233
CCCTAATC	-0.0172
CATGCCCA	-0.146
ACGAAAGG	0.32
CAACGACG	0.296
AGCGTGTG	-0.0415
ACTCTAGA	-0.0372
ATCTTGGA	-0.128
AATCGGCA	-0.133
CAAAAGAG	-0.0542
GGCAGTGA	-0.313
AAAAGTTA	0.0517
